Assay results as given in the supplement of paper PMC9446081.
Out of some 39,000 compounds screened, about 220 (0.56%) showed activity. Some of the results follow.

These compounds were tested on Escherichia coli K-12 BW25113 (assay: relative growth (OD600 normalised to plate interquartile mean) (fraction); higher = less growth inhibition, active = 0.2 or less). Settings: 50 µM; LB; incubation time: overnight (16-24 h).
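Further: static incubation at 37 °C against the wild-type strain, values averaged over two biological replicates.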

Structure (SMILES)	relative growth
COc1ccc(S(=O)(=O)Nc2ccc3c(c2)C(=O)N([C@H](C)CO)C[C@H](C)[C@@H](CN(C)S(=O)(=O)c2ccc(C)cc2)O3)cc1	inactive: 1.03
C[C@H]1CN([C@@H](C)CO)S(=O)(=O)c2ccc(C3=CCCC3)cc2O[C@@H]1CN(C)S(=O)(=O)c1cn(C)cn1	inactive: 0.979
C[C@H](CO)N1C[C@H](C)[C@H](CN(C)C(=O)c2ccccc2)Oc2cc(C#CC3(O)CCCC3)ccc2S1(=O)=O	inactive: 0.987
O=C(/C=C/c1ccc(O)c(O)c1)O[C@@H]1C[C@](OC(=O)/C=C/c2ccc(O)c(O)c2)(C(=O)O)C[C@@H](O)[C@H]1O	inactive: 0.987
C[C@H](CO)N1C[C@H](C)[C@@H](CN(C)Cc2ccc3c(c2)OCO3)Oc2c(NC(=O)c3ccc(-c4nccs4)cc3)cccc2C1=O	inactive: 1.03
C[C@H](CO)N1C[C@H](C)[C@@H](CN(C)S(=O)(=O)c2cn(C)cn2)Oc2ccc(NC(=O)CCC(F)(F)F)cc2C1=O	inactive: 1.02
COc1cccc2c1C(=O)c1c(O)c3c(c(O)c1C2=O)CC(O)(C(=O)CO)CC3OC1CC(N)C(O)C(C)O1 (stereo unspecified)	inactive: 1.02
C[C@H](CO)N1C[C@H](C)[C@H](CN(C)C(=O)Nc2ccc(C(F)(F)F)cc2)OCc2cn(nn2)CCCC1=O	inactive: 0.954
C[C@@H]1CN([C@H](C)CO)C(=O)Cc2cc(NC(=O)NC3CCCCC3)ccc2O[C@@H]1CN(C)C(=O)Nc1cccc2ccccc12	inactive: 0.984
COc1ccc(C#Cc2ccc3c(c2)[C@]2(C(=O)N3)[C@H](C(=O)N3CCN(c4ncccn4)CC3)[C@H]3C(=O)O[C@H](c4ccccc4)[C@H](c4ccccc4)N3[C@@H]2c2ccc(OCCO)cc2)cc1	inactive: 1.1
CC(=C\c1ccccc1)/C(C)=N/O	inactive: 0.99
NC(Cn1ccc(=O)c(O)c1)C(=O)O (stereo unspecified)	inactive: 0.983
C[C@@H]1CN([C@@H](C)CO)C(=O)Cc2cc(NS(=O)(=O)c3cccs3)ccc2O[C@@H]1CN(C)S(=O)(=O)c1ccccc1	inactive: 0.955
O=C(/C=C/c1ccc(O)c(O)c1)O[C@@H]1C[C@](O)(C(=O)O)C[C@@H](O)[C@H]1O	inactive: 1.01
Cc1noc(C)c1S(=O)(=O)N(C)C[C@@H]1Oc2ccc(NC(=O)Nc3ccc4c(c3)OCO4)cc2CC(=O)N([C@@H](C)CO)C[C@@H]1C	inactive: 1
C[C@H]1CCCCO[C@H](CN(C)Cc2ccc(C(F)(F)F)cc2)[C@@H](C)CN([C@@H](C)CO)C(=O)c2cc(NS(=O)(=O)c3ccc(F)cc3)ccc2O1	inactive: 0.972
